{"source": "paper PMC9911399", "about": "“Two distinct binding modes provide the RNA-binding protein RbFox with extraordinary sequence specificity”", "binders": {"B1": {"name": "UUCGUAU (DNA:RNA)", "RNA": "GGGAGACCGGAAUUCAGAUUGUCCUUCGUAUUUAAAUCCCGUCGUAGCCACCA", "DNA 1": "CAATCTGAATTCCGGTCTCCC", "DNA 2": "TGGTGGCTACGACGGGATT"}, "B2": {"name": "CGACAAC (DNA:RNA)", "RNA": "B1 RNA with U25C, U26G, C27A, G28C, U29A, U31C", "DNA 1": "CAATCTGAATTCCGGTCTCCC", "DNA 2": "TGGTGGCTACGACGGGATT"}, "B3": {"name": "CGAACGU (DNA:RNA)", "RNA": "B1 RNA with U25C, U26G, C27A, G28A, U29C, A30G", "DNA 1": "CAATCTGAATTCCGGTCTCCC", "DNA 2": "TGGTGGCTACGACGGGATT"}, "B4": {"name": "UCACGGU (DNA:RNA)", "RNA": "B1 RNA with U26C, C27A, G28C, U29G, A30G", "DNA 1": "CAATCTGAATTCCGGTCTCCC", "DNA 2": "TGGTGGCTACGACGGGATT"}, "B5": {"name": "UGGAUGA (DNA:RNA)", "RNA": "B1 RNA with U26G, C27G, G28A, A30G, U31A", "DNA 1": "CAATCTGAATTCCGGTCTCCC", "DNA 2": "TGGTGGCTACGACGGGATT"}, "B6": {"name": "CUUGGAU (DNA:RNA)", "RNA": "B1 RNA with U25C, C27U, U29G", "DNA 1": "CAATCTGAATTCCGGTCTCCC", "DNA 2": "TGGTGGCTACGACGGGATT"}, "B7": {"name": "GCCCCGG (DNA:RNA)", "RNA": "B1 RNA with U25G, U26C, G28C, U29C, A30G, U31G", "DNA 1": "CAATCTGAATTCCGGTCTCCC", "DNA 2": "TGGTGGCTACGACGGGATT"}, "B8": {"name": "ACUGGGC (DNA:RNA)", "RNA": "B1 RNA with U25A, U26C, C27U, U29G, A30G, U31C", "DNA 1": "CAATCTGAATTCCGGTCTCCC", "DNA 2": "TGGTGGCTACGACGGGATT"}, "B9": {"name": "GUGGGCG (DNA:RNA)", "RNA": "B1 RNA with U25G, C27G, U29G, A30C, U31G", "DNA 1": "CAATCTGAATTCCGGTCTCCC", "DNA 2": "TGGTGGCTACGACGGGATT"}, "B10": {"name": "CGACGGA (DNA:RNA)", "RNA": "GGGAGACCGGAAUUCAGAUUGUCCCGACGGAUUAAAUCCCGUCGUAGCCACCA", "DNA 1": "CAATCTGAATTCCGGTCTCCC", "DNA 2": "TGGTGGCTACGACGGGATT"}, "B11": {"name": "AGCGCUG (DNA:RNA)", "RNA": "B1 RNA with U25A, U26G, U29C, A30U, U31G", "DNA 1": "CAATCTGAATTCCGGTCTCCC", "DNA 2": "TGGTGGCTACGACGGGATT"}, "B12": {"name": "GCCCCAG (DNA:RNA)", "RNA": "B1 RNA with U25G, U26C, G28C, U29C, U31G", "DNA 1": "CAATCTGAATTCCGGTCTCCC", "DNA 2": "TGGTGGCTACGACGGGATT"}, "B13": {"name": "GUCGAGA (DNA:RNA)", "RNA": "B1 RNA with U25G, U29A, A30G, U31A", "DNA 1": "CAATCTGAATTCCGGTCTCCC", "DNA 2": "TGGTGGCTACGACGGGATT"}, "B14": {"name": "GCGUAAA (DNA:RNA)", "RNA": "B10 RNA with C25G, G26C, A27G, C28U, G29A, G30A", "DNA 1": "CAATCTGAATTCCGGTCTCCC", "DNA 2": "TGGTGGCTACGACGGGATT"}, "B15": {"name": "GCAGAUC (DNA:RNA)", "RNA": "B10 RNA with C25G, G26C, C28G, G29A, G30U, A31C", "DNA 1": "CAATCTGAATTCCGGTCTCCC", "DNA 2": "TGGTGGCTACGACGGGATT"}, "B16": {"name": "GCAGACC (DNA:RNA)", "RNA": "B10 RNA with C25G, G26C, C28G, G29A, G30C, A31C", "DNA 1": "CAATCTGAATTCCGGTCTCCC", "DNA 2": "TGGTGGCTACGACGGGATT"}, "B17": {"name": "CUUACAU (DNA:RNA)", "RNA": "B1 RNA with U25C, C27U, G28A, U29C", "DNA 1": "CAATCTGAATTCCGGTCTCCC", "DNA 2": "TGGTGGCTACGACGGGATT"}, "B18": {"name": "GCCUCAA (DNA:RNA)", "RNA": "B1 RNA with U25G, U26C, G28U, U29C, U31A", "DNA 1": "CAATCTGAATTCCGGTCTCCC", "DNA 2": "TGGTGGCTACGACGGGATT"}, "B19": {"name": "AAUGCCU (DNA:RNA)", "RNA": "B1 RNA with U25A, U26A, C27U, U29C, A30C", "DNA 1": "CAATCTGAATTCCGGTCTCCC", "DNA 2": "TGGTGGCTACGACGGGATT"}, "B20": {"name": "GACGUGC (DNA:RNA)", "RNA": "B1 RNA with U25G, U26A, A30G, U31C", "DNA 1": "CAATCTGAATTCCGGTCTCCC", "DNA 2": "TGGTGGCTACGACGGGATT"}}, "note": "Where a chain is given by its changes, count along the chain named. The list shows a part of the results.", "data": [{"target": "T1, RBFOX1 RRM (Homo sapiens, UniProt Q9NWB1 109-208)", "T1 sequence": "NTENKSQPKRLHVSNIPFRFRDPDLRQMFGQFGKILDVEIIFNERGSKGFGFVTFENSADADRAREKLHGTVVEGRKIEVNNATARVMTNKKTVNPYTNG", "assay": "EMSA; HiTS-Eq, 1 nM pool, 10 min; buffer printed only for the single-RNA assays: 10 mM Tris pH 7.5, 150 mM NaCl, 3.4 mM EDTA, 0.001% NP-40, 30 C", "details": "tags: His6 N-terminal (pET28a); label: 5' 32P", "how_it_was_run": "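Relative association constants, normalised to the cognate motif, were derived by comparing read counts of each RNA species with those of the control reaction. The RNA sequenced was the free fraction, separated by 8% native PAGE after a 10 min equilibration in 50 µL of 1 nM 5′-radiolabelled RNA (7 randomized nucleotides) with increasing concentrations of purified wild-type or mutant RbFox RRM.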", "values": [{"binder": "B1", "binding signal": "0.00931 KA relative to UGCAUGU"}, {"binder": "B2", "binding signal": "0.00711 KA relative to UGCAUGU"}, {"binder": "B3", "binding signal": "0.0143 KA relative to UGCAUGU"}, {"binder": "B4", "binding signal": "0.00695 KA relative to UGCAUGU"}, {"binder": "B5", "binding signal": "0.0437 KA relative to UGCAUGU"}, {"binder": "B6", "binding signal": "0.00999 KA relative to UGCAUGU"}, {"binder": "B7", "binding signal": "0.0112 KA relative to UGCAUGU"}, {"binder": "B8", "binding signal": "0.0151 KA relative to UGCAUGU"}, {"binder": "B9", "binding signal": "0.0209 KA relative to UGCAUGU"}, {"binder": "B10", "binding signal": "0.00996 KA relative to UGCAUGU"}, {"binder": "B11", "binding signal": "0.0157 KA relative to UGCAUGU"}, {"binder": "B12", "binding signal": "0.00848 KA relative to UGCAUGU"}, {"binder": "B13", "binding signal": "0.0165 KA relative to UGCAUGU"}, {"binder": "B14", "binding signal": "0.00419 KA relative to UGCAUGU"}, {"binder": "B15", "binding signal": "0.0109 KA relative to UGCAUGU"}, {"binder": "B16", "binding signal": "0.0047 KA relative to UGCAUGU"}, {"binder": "B17", "binding signal": "0.00228 KA relative to UGCAUGU"}, {"binder": "B18", "binding signal": "0.00569 KA relative to UGCAUGU"}, {"binder": "B19", "binding signal": "0.0058 KA relative to UGCAUGU"}, {"binder": "B20", "binding signal": "0.0187 KA relative to UGCAUGU"}]}]}
